Test results as given in PMC7819943, “Rice protein-binding microarrays: a tool to detect cis-acting elements near promoter regions in rice”.
Some of the results follow.

molecular target: T1, OsWOX13 (Oryza sativa, UniProt Q5QMM3 1-267); experiment: protein-binding microarray (RPBM); PBS, 2% BSA, 51.3 ng/ul salmon testes DNA, 50 uM zinc acetate, 200 nM TF, 25 C, 1 h; high values mean tight binding; conditions: protein: recombinant; tags: N-terminal polyhistidine and DsRed monomer fusion (pET32a); label: CyDye5-dUTP incorporated in the synthesized complementary strand; 3' TTTTT single-stranded linker to array surface; dsDNA, one strand shown
T1 sequence: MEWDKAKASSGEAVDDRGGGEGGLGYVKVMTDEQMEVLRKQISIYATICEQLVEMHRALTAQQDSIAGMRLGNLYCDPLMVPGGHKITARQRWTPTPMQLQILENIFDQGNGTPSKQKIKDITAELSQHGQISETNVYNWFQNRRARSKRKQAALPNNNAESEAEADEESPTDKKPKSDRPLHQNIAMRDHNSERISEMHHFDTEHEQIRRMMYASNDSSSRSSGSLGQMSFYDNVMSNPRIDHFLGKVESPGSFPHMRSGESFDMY
Outline: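 The binding signal is fluorescence intensity per array feature (arbitrary units). Readings came from an Axon 4000B scanner after a washed, 2% BSA-blocked, double-stranded custom Agilent array had been incubated for 1 h at 25 °C with 200 nM protein and 50 µM zinc acetate. The protein was a Ni–NTA-purified transcription factor fused N-terminally to polyhistidine and DsRed, expressed in E. coli BL21-CodonPlus.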

Sequence	binding signal
GTTGATAACCCGATAATCATCGCGGCGCCAGTATTCGTCACGGAGTCACCTAGTGCAG	3780 fluorescence intensity (a.u.)
ACAACGGATAGACTGATAAATTCTGCAGGGCGCATTGAATCGGAGTCACCTAGTGCAG	4260 fluorescence intensity (a.u.)
CCCAATTAAACTACGGATTATAATTGCAGCTCAACCAATCCGGAGTCACCTAGTGCAG	21400 fluorescence intensity (a.u.)
CTATGATATACGTAAGGGTAAATTGGACAATTCATCATAACGGAGTCACCTAGTGCAG	4470 fluorescence intensity (a.u.)
GAGAACTAATTAATCTTATAGGCAAAGGGTTAACAGAAGCCGGAGTCACCTAGTGCAG	12400 fluorescence intensity (a.u.)
TTAATTAATTATCTCCGATACATCCTGCGGCGATTTTCGTCGGAGTCACCTAGTGCAG	50500 fluorescence intensity (a.u.)
GATAGATAGATTTAATTTTGATAATGCATAGAGATATTGCCGGAGTCACCTAGTGCAG	19200 fluorescence intensity (a.u.)
GATGATGATGATGATATGGATATTCATTGGCATAGTTGTGCGGAGTCACCTAGTGCAG	15100 fluorescence intensity (a.u.)
GCTTTAAAATGTTAAATTTATCCATTTATCATGTTTATAACGGAGTCACCTAGTGCAG	8220 fluorescence intensity (a.u.)
AGTAATTGACTCGACCGCGAGCGACGTCGATCGATCTGTCCGGAGTCACCTAGTGCAG	34700 fluorescence intensity (a.u.)
AATGAATTCAAGAAAATTAAATTTCACAACATTACACTTCCGGAGTCACCTAGTGCAG	3760 fluorescence intensity (a.u.)
AATAACAAATTTGACTTGATAAATGAGATGGAGAGTTGGCCGGAGTCACCTAGTGCAG	29100 fluorescence intensity (a.u.)
AAGGGAAAATTGACCACATTCATCTGACAGTGGACTGCTTCGGAGTCACCTAGTGCAG	7940 fluorescence intensity (a.u.)
AAAGTTACATATTGATTACCTATTGTAAATTGCCATGATCCGGAGTCACCTAGTGCAG	14700 fluorescence intensity (a.u.)
AGGTCATTAATGAAAACGGATGGCTGAGATTTATTTAGGTCGGAGTCACCTAGTGCAG	3800 fluorescence intensity (a.u.)
GAACCCTAACTGCGCCATCACATCGATCTACCTCCCCTTACGGAGTCACCTAGTGCAG	5060 fluorescence intensity (a.u.)
TTCTTCAAATTGACTTAGAGTTTTCCAGATCCCTGAGAAGCGGAGTCACCTAGTGCAG	4830 fluorescence intensity (a.u.)
TTATAATTAGTATTTTCATTGTTGTTAGATGATAAAACATCGGAGTCACCTAGTGCAG	17500 fluorescence intensity (a.u.)
ACAGTGTAATTACACTACGATTATACTATAATTACATCTGCGGAGTCACCTAGTGCAG	20200 fluorescence intensity (a.u.)
ACCTGAATGATTTCTACCATGGAAAAGCCATTAAAGAGGTCGGAGTCACCTAGTGCAG	20100 fluorescence intensity (a.u.)
TACCTAATATAAGTAAATTGGTTCTCGACCCGGAATAAATCGGAGTCACCTAGTGCAG	3180 fluorescence intensity (a.u.)

Sequence	binding signal
CTATTTAGACACAACATGTTAACATGCTAATTTTGTTGGTCGGAGTCACCTAGTGCAG	8370 fluorescence intensity (a.u.)
CGACGAATGGAAAATTTCTAATTATTTTCTAAAGTAGGCTCGGAGTCACCTAGTGCAG	3770 fluorescence intensity (a.u.)
ATAGGGACAATTTCACTGATTGCGAGGTCTGCCCAAGTCCCGGAGTCACCTAGTGCAG	11700 fluorescence intensity (a.u.)
CCAAAATTGCAATTAGCCCCTTGCCGCCCTCTGTATGGGCCGGAGTCACCTAGTGCAG	28400 fluorescence intensity (a.u.)
ACACATGATTGCATTGACCATTACAAACCAAACAATTCGACGGAGTCACCTAGTGCAG	35000 fluorescence intensity (a.u.)
GAGAGAGAGATCAGCACATGATTGATTAAATATTAGCTTACGGAGTCACCTAGTGCAG	19100 fluorescence intensity (a.u.)
TACCTTAATTTATTGATTGCACTCTTGTTCTCACACGGTTCGGAGTCACCTAGTGCAG	53200 fluorescence intensity (a.u.)
TTTTACATTGATAATTTGAAACCATTTCACGTTTATGTGTCGGAGTCACCTAGTGCAG	11100 fluorescence intensity (a.u.)
TAATAATTATTATTTGTGCTCTGAAAATTCCACTAAAATTCGGAGTCACCTAGTGCAG	10900 fluorescence intensity (a.u.)
CCCATGCAAAATCTAAACAAATTTAGCGGCTGATTAGTTACGGAGTCACCTAGTGCAG	5100 fluorescence intensity (a.u.)
CTCCTAATTAACGCAATTGACACTGGGCCACAGATCAAAGCGGAGTCACCTAGTGCAG	32400 fluorescence intensity (a.u.)
CTAGCTAATTAAGAGCTGTCCACACCATGCATCCGTCCGCCGGAGTCACCTAGTGCAG	11200 fluorescence intensity (a.u.)
CTACAGTTTGTGATTTGTCTGATCATGACAAAGGTCTACACGGAGTCACCTAGTGCAG	8870 fluorescence intensity (a.u.)
CACCAGTTAAACTGTTAAATGAGCCCATTGTGAAATCTGTCGGAGTCACCTAGTGCAG	8770 fluorescence intensity (a.u.)
GGAATAGATTAAATCATTATATGTCTATAATCTCAACAATCGGAGTCACCTAGTGCAG	24500 fluorescence intensity (a.u.)
TCTTCAATTAATTAAACAAGTCGATCACACACGCATCACTCGGAGTCACCTAGTGCAG	27700 fluorescence intensity (a.u.)
TCTTAACAAGGTGATAGTGATTTGCGCACAACTTGCTTGACGGAGTCACCTAGTGCAG	6410 fluorescence intensity (a.u.)
TAATTATTAATATTTAATTAATTATATGTACTAATGAGTTCGGAGTCACCTAGTGCAG	34200 fluorescence intensity (a.u.)
GCTTGTCAATCATATCATCATCGTTCATATCATTATTCTACGGAGTCACCTAGTGCAG	17600 fluorescence intensity (a.u.)
ACATTGATAGAAACAGCACAGGAAGTTCTGAGTCAGGCCCCGGAGTCACCTAGTGCAG	26300 fluorescence intensity (a.u.)
ACCTGTAAATTCGAAATTGACATCGAAGCGCAAAGCATCCCGGAGTCACCTAGTGCAG	22300 fluorescence intensity (a.u.)

Sequence	binding signal
GGGGTTTCAATTAGCTTGCATACATATATAAGGAATGAAACGGAGTCACCTAGTGCAG	5000 fluorescence intensity (a.u.)
TACTACTAATTTTCATTTGCCTGAAAATTATAATATCGCACGGAGTCACCTAGTGCAG	6620 fluorescence intensity (a.u.)
ATCATGACGTAATTAGGCTCAAAAGATTCATCTCGTGATTCGGAGTCACCTAGTGCAG	19300 fluorescence intensity (a.u.)
GGATGCCAATAGTTATTTGTGATTGTCTATTTAGAATTTCCGGAGTCACCTAGTGCAG	3970 fluorescence intensity (a.u.)
GGTTTCCAATCACGAGAGCGAGCGGCTGCTTGACCATTGACGGAGTCACCTAGTGCAG	17100 fluorescence intensity (a.u.)
TGCACCAATTTGATTGATACCAATTTGCTTTAATTTCGTCCGGAGTCACCTAGTGCAG	57200 fluorescence intensity (a.u.)
TATAAGCTAAAATTTGAATTAAATTTAGAGATGATTTTGACGGAGTCACCTAGTGCAG	3530 fluorescence intensity (a.u.)
GACAATAGGAAAACGATCATCAATCATGACTATCACTGTTCGGAGTCACCTAGTGCAG	4970 fluorescence intensity (a.u.)
AACTTCTAATTTTAACGTGAAACTAAACACAGCCTTATCTCGGAGTCACCTAGTGCAG	4940 fluorescence intensity (a.u.)
ATGCCAAATTTGACTATCAACAACAGGTGCCAGACAGACCCGGAGTCACCTAGTGCAG	6780 fluorescence intensity (a.u.)
AAAATTTATTTTGATAGATATATTTTAATCCAATAGCCTACGGAGTCACCTAGTGCAG	14200 fluorescence intensity (a.u.)
TCGAGATTGATCGACGATATCCCCGGCGGCTTCAGCTTGACGGAGTCACCTAGTGCAG	23400 fluorescence intensity (a.u.)
GATGATATTTGGAAGATTCTGATTAGCCATCTCCTTTAATCGGAGTCACCTAGTGCAG	4710 fluorescence intensity (a.u.)
CCAAATTATCGCTAGTACAGAACTTGTTATCCGTAACGACCGGAGTCACCTAGTGCAG	7630 fluorescence intensity (a.u.)
TGTTTTCCTTTAAATTGATTGCATAGTTAGGTCCGACCAACGGAGTCACCTAGTGCAG	26400 fluorescence intensity (a.u.)
TTTGAATGACATGACTGCAAGACGTGCACGAGGTGATAGGCGGAGTCACCTAGTGCAG	14100 fluorescence intensity (a.u.)
GCCTAATTAAGAACAAATTGCGTGAAATAATATATGTTATCGGAGTCACCTAGTGCAG	22500 fluorescence intensity (a.u.)
AGTATAGACGTTAACAGGTGACTGCTTGAAACTGGGCAGTCGGAGTCACCTAGTGCAG	5070 fluorescence intensity (a.u.)
GGTCAATCAGGACCGTCTATCAGATCAGACGGTTCCGGCTCGGAGTCACCTAGTGCAG	23400 fluorescence intensity (a.u.)
CGTGTGGATTAACTCCCAATTAAGATGGTTTGTCTATTGTCGGAGTCACCTAGTGCAG	4710 fluorescence intensity (a.u.)
TATTAATATTCAATCAAGAGTTATACTAATATATTCCAAACGGAGTCACCTAGTGCAG	20000 fluorescence intensity (a.u.)

Sequence	binding signal
AAAATTAATATTATTTAATTTCCTTTAGAAAGAAAACATTCGGAGTCACCTAGTGCAG	8510 fluorescence intensity (a.u.)
CCGGCCCACAAATTAAATGGAATCGCTTGCTGGCCTACGCCGGAGTCACCTAGTGCAG	3560 fluorescence intensity (a.u.)
ATTTGACTTGATTTTGTAATATCGTGACAATTTGGGACGCCGGAGTCACCTAGTGCAG	21100 fluorescence intensity (a.u.)
GATTGGTCATAATTATATATATATATTACTTCCTAATCACCGGAGTCACCTAGTGCAG	6390 fluorescence intensity (a.u.)
AACAACATGGATTAATTTAATCAGGTCTTCGCTGTTAAGACGGAGTCACCTAGTGCAG	9400 fluorescence intensity (a.u.)
TTCTAGCGATAAATTAATTAATGCTCCTCTCGCCGCGCCGCGGAGTCACCTAGTGCAG	13300 fluorescence intensity (a.u.)
ATTTGATTGAATGTAGAGATTCTTGTAATAGGATTCTTTGCGGAGTCACCTAGTGCAG	64700 fluorescence intensity (a.u.)
CAGGTTGATTAGTGGGCGATCGATCTGCGTAGAAAAGCAACGGAGTCACCTAGTGCAG	22900 fluorescence intensity (a.u.)
GGTAGCAGGTGATTGGATTGAACCATTGCTCAAATCAAATCGGAGTCACCTAGTGCAG	11400 fluorescence intensity (a.u.)
GGGTCCTTTGAATGATTACAAATGGTAAGTTGGGCCGACGCGGAGTCACCTAGTGCAG	3160 fluorescence intensity (a.u.)
TTCCAAGTGATTTGGTCCGGTTCTTCTTCATCCAGCTGCACGGAGTCACCTAGTGCAG	3710 fluorescence intensity (a.u.)
TTTACATGTTAATTACTGAGCTGTAAACCGCACAAAGTCACGGAGTCACCTAGTGCAG	9650 fluorescence intensity (a.u.)
AAATTTTGACATCAATTAAATGATCATGTATTACCAAAATCGGAGTCACCTAGTGCAG	21400 fluorescence intensity (a.u.)
CAAATACTTCAGTTAATTATGGCGCCGTGGAGTCGCTGTCCGGAGTCACCTAGTGCAG	7050 fluorescence intensity (a.u.)
TTCCAACAGGGCCTAATTGGAAGACGTAGTTTTGGACCGTCGGAGTCACCTAGTGCAG	17800 fluorescence intensity (a.u.)
ACACTAATCTGACAGATGAGGACCAGTTTGCAAAGGCTGACGGAGTCACCTAGTGCAG	9190 fluorescence intensity (a.u.)
TAGATACGGCGGATGTGATTAGTATTCGAGATGACGCACGCGGAGTCACCTAGTGCAG	3700 fluorescence intensity (a.u.)
CAACAAATTTCAAATCTTCAGGAAGCTGTTGAAAACCTTGCGGAGTCACCTAGTGCAG	3980 fluorescence intensity (a.u.)
AACAAATTGAGCGACCTAAAGTGAACTTATTCCTTATTACCGGAGTCACCTAGTGCAG	8060 fluorescence intensity (a.u.)
TGAGTGATGGGCGAAATTACTACTCCTTCGTAATACGATTCGGAGTCACCTAGTGCAG	3990 fluorescence intensity (a.u.)
TTGTATCGTTTTGGTAGGGGATGGGATGTGCTATACGGGGCGGAGTCACCTAGTGCAG	3180 fluorescence intensity (a.u.)
